# Results as given in PMC3682574.
# Sequences of proteins named here, by UniProt entry; tags and fusion partners are left off. A change or cut given only in a name is not applied to a line headed by its entry.
# UniProt P62873: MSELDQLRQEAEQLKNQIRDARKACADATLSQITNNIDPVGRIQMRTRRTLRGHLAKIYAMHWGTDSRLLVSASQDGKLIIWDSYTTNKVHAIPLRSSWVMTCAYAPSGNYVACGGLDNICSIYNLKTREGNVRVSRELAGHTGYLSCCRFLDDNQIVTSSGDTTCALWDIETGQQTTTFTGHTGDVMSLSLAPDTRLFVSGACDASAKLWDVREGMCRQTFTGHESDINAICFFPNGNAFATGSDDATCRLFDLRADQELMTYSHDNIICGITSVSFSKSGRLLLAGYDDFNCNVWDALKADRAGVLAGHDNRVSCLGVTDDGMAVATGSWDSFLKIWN
# UniProt P62879: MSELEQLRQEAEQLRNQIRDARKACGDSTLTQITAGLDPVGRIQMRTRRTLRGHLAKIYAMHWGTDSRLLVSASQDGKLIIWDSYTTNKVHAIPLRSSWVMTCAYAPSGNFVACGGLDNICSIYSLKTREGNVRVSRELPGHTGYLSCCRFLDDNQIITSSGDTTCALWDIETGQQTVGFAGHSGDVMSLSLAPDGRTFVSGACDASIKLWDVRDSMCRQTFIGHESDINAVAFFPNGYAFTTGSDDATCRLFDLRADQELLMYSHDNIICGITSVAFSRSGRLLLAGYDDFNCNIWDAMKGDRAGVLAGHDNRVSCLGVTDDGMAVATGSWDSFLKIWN
# UniProt P45973: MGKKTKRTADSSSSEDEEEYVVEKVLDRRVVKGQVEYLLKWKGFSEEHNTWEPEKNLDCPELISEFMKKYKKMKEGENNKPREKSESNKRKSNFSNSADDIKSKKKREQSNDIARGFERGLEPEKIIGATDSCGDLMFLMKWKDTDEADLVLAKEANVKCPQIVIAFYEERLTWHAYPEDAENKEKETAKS
# Results are given in words; binding and its absence hold for the method and conditions named. In cells and extracts the contact can be indirect. Some binding calls cover weakened binding; strength is not graded here. For part of these data: Tags and fused reporters may be left off the sequences shown.
# Experiments:
# [1] = target: T1, GST-KLF11 TRD3 (amino acids 273–351) (human) (UniProt O14901); test: pull-down; GST pulldown: GST-KLF11 TRD3 or GST-KLF11 full length with 35S-labeled in vitro translated Gβ2 or its deletions; phosphorimaging; only the target purified
# T1 sequence: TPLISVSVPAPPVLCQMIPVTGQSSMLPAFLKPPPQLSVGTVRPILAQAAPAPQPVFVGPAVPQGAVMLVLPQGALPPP
# [2] = target: GST-KLF11 full length (human) (UniProt O14901); test: as above
# [3] = target: KLF11-EYFP1 (human) (UniProt O14901); test: split reporter; BiFC: KLF11-EYFP(1) and Gβ2-EYFP(2) co-transfected in HeLa (isoproterenol) and Capan2 (secretin) cells, stimulated for 30 min before fixation; confocal microscopy
# [4] = target: KLF11-EYFP1 (human) (UniProt O14901); test: condition: only vehicle, without the GPCR agonist (isoproterenol or secretin); split reporter; BiFC as above, HeLa and Capan2 cells with control treatment (vehicle), no GPCR agonist
# [5] = target: His-tagged KLF11 A347S (Panc1) (human) (UniProt O14901); test: co-IP; immunoprecipitation of His-tagged KLF11 WT or A347S (Panc1 cells named for Fig. 4A); Western blot for endogenous Gβ2, Sin3a, HP1α and CBP/p300
# [6] = target: His-tagged KLF11 WT (Panc1) (human) (UniProt O14901); test: as above
# [7] = target: FLAG-tagged Gβ1 (HeLa) (UniProt P62873); test: co-IP; HeLa cells co-transfected with His-KLF11 and FLAG-Gβ2 or FLAG-Gβ1; immunoprecipitation of FLAG, KLF11 detected; basal conditions and with isoproterenol (more robust)
# [8] = target: FLAG-tagged Gβ2 (HeLa) (UniProt P62879); test: as above
substance,measurement,setting,value
35S-labeled in vitro translated Gβ2 (from UniProt P62879 1-340),binding,[1],binds
Gβ2(1–214) (from UniProt P62879 1-214) (domain or fragment),binding,[2],no binding
Gβ2(106–214) (from UniProt P62879 106-214) (domain or fragment),binding,[2],no binding
Gβ2-EYP2 (from UniProt P62879 1-340),binding,[3],binds
same,binding,[4],no binding
Gβ2Δ1–105 (from UniProt P62879 106-340) (domain or fragment),binding,[2],binds
Gβ2Δ1–120 (from UniProt P62879 121-340) (domain or fragment),binding,[2],binds
Gβ2Δ1–208 (from UniProt P62879 209-340) (domain or fragment),binding,[2],binds
Gβ2Δ1–221 (from UniProt P62879 222-340) (domain or fragment),binding,[2],no binding
HP1α (from UniProt P45973 1-191),binding,[5],binds
same,binding,[6],binds
His-tagged full-length KLF11 (HeLa) (from UniProt O14901 1-512),binding,[7],binds
same,binding,[8],binds
endogenous Gβ2 (Panc1) (from UniProt P62879 1-340),binding,[5],no binding
same,binding,[6],binds
